Test results: the supplement of paper PMC11417369
± gives the standard deviation of the averaged measurements. This is one part of the list.

The sequences below were run on PfAP2-EXP AP2 domain (GST-tagged) (assay: gcPBM binding intensity (ln(normalized median fluorescence intensity)); higher = stronger DNA binding).
In short: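 Binding intensity is the highest Masliner-normalised natural-log median intensity over replicate spots in either probe orientation. To obtain it, GST-tagged P. falciparum DNA-binding domains made in E. coli were incubated for 1 h on an Agilent 4 × 180k array of primer-extended double-stranded 36-bp intergenic genomic probes plus negative controls. Detection used Alexa488 anti-GST antibody with scanning at 488 nm.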

Sequence	gcPBM binding intensity (ln)
TAAAGAAATTCTTCATGTACTTATTATTTCTCTTTT [XGTACX_site6817]	8.64 ± 0.6
TATGGAATAAATTTATCCATACATCTTATAACATAT [XGTACX_negctrl_site500]	8.38 ± 0.45
AGAAAGATGCAAGAAACATGCAAAAAAAAAATTTCT [TGCATGCA_site725]	8.6 ± 0.51
TGTATTCCTTTTTATAGTACAATTTAAAAGTATAAA [XGTACX_site2045]	8.46 ± 0.3
GTACGTTTCTCCAGACTGCACTATACGACTCGTACA [GTGCAC_site9771]	9.15 ± 0.28
CACAAATATACAAATACACACAAATATACTCATATA [CACACA_site5339]	8.51 ± 0.41
ACATAATATATATATTGTACAAATATATTATTGTTA [XGTACX_site3385]	8.3 ± 0.3
AAAAAATTATATAATAATAGAACTATACATTTTATT [GTGCAC_negctrl_site645]	8.04 ± 0.38
AGCCACGGGTTATATACACACATAATCAAATAAAAT [CACACA_site6117]	8.64 ± 0.54
ATTTTTAATGGATAAGTGCATAATATTATGATGCAA	8.755 ± 0.021
TATGTAATAAAATATACACACAATATACTTATATAT [CACACA_site3682]	8.27 ± 0.35
ATTTAAAATAGAAGTTATATTTATATGGGTGAAAAA [GTGCAC_negctrl_site296]	8.41 ± 0.36
GGAATAACCGGACACACACACACATATATATATATA [CACACA_site5874]	10.2 ± 0.51
TCTAATCTGGAGAAAAGTACATAGTATCTGGTAACA [XGTACX_site2540]	8.53 ± 0.41
TTATTCATACAATATCGTACATATATATATATATAT [XGTACX_site1185]	10.2 ± 0.33
ATCTTATATATATGTGTGCACGTATATATAAGCAAT [GTGCAC_site9933]	8.68 ± 0.18
ATTATATATATATATACACACACATATATATATATA [CACACA_site8373]	10 ± 0.4
GTACACCTATAATATACACACAACAAATATGCACAT [CACACA_site6603]	8.92 ± 0.085
TTATAAATAAAAAGAGTGCAATTATAAATATATATA	8.735 ± 0.035
AAATAAAATATGAACAGTACTTTTGATATAACCATT [XGTACX_site1873]	8.68 ± 0.48
AAAAAAATACAAATATGTACACATATATATTTAAAA [XGTACX_site4729]	8.28 ± 0.22
CAATTTATAAAGAAAACACACATATACCTATATACA [CACACA_site6710]	8.66 ± 0.35
TACACGCATAAACACACACACACACCCATATATATA [CACACA_site8114]	8.79 ± 0.35

Sequence	gcPBM binding intensity (ln)
TTTATATTTAAAGAAACATGCATTTATCATATATAC [TGCATGCA_site173]	8.54 ± 0.33
AAAAAAATAAAATACAAAATGGCTATACAAAATAAA [GTGCAC_negctrl_site535]	8.73 ± 0.47
TTTGTTGACGAACACACACACATACATATTTATATA [CACACA_site7141]	8.63 ± 0.37
TCTATAATATTTTTCACACACCATTTCCTTAAACAC [CACACA_site6747]	8.7 ± 0.53
ATTACATATGTCGCTTGTACGCATAATTTTTTTATA [XGTACX_site5782]	8.97 ± 0.45
ATTTTTTTATTTTGAAGTACATAAACTTTATATATA [XGTACX_site1746]	8.5 ± 0.35
ATTTAAAAAAAAAGACGTACATTTATATAGAATCCT [XGTACX_site6457]	8.55 ± 0.18
TAATTTTTATTCAGTTCACACACGCTTTAATATTAT [CACACA_site9147]	8.69 ± 0.47
ATAAATTTACATTTTTTTTTTTTTTTTTTTTTTTTT [GTGCAC_negctrl_site689]	9.07 ± 0.014
GTATAGTACAAATAAGTGCATATAAAAGAAATACAG	9.17 ± 0.3
AAAAAATATACATATTGTACATTTTTTATTAACACA [XGTACX_site6415]	8.27 ± 0.39
ATTACCAAAAAAAGGTGTACAAATATAATTATGAAA [XGTACX_site44]	8.79 ± 0.49
ATTTTTTTTCGTAATTGTTCTTAATGTTGAATTATA [CACACA_negctrl_site1135]	8.73 ± 0.5
TTTTCCTTTCACAATGGTACACAAATATACATGCAA [XGTACX_site7244]	9.1 ± 0.29
TAGTAATATGTATCCATACACACATACATTTTATTT [CACACA_site873]	8.52 ± 0.41
AAAAAAGAAAAGAAATGTACAGAGCTTATCTTTTTA [XGTACX_site5677]	8.65 ± 0.73
TTTTTTAATTTTACATGTACATACAGGTTTTTTTTT [XGTACX_site4539]	8.8 ± 0.41
TTATTCCTATTTGGATGTACATTTTAATATAAACAT [XGTACX_site4386]	8.57 ± 0.4
TTCAATTTTACATGTAGTACATAAATTATACACAAA [XGTACX_site4946]	8.64 ± 0.3
ATTAATAAATAAATGACACACACACCCACAAAAAAA [CACACA_site8839]	8.99 ± 0.45
AATGATAAAAATAAATGTACAGAATGATATTTTTTT [XGTACX_site5976]	8.48 ± 0.46
AAAAAATTGTTTCCCTGTACTCAAAAAAAAAAAAAA [XGTACX_site8070]	8.21 ± 0.42
TAATAATAGTAAATATGTACATATATATATATATAG [XGTACX_site4602]	8.73 ± 0.3

Sequence	gcPBM binding intensity (ln)
TAAAATTTACGGTCTTGTTGCGCAACCAACATTGTC [CACACA_negctrl_site1175]	8.82 ± 0.49
GTTTTTTTTTTTTTGGTGCGTCATTTTCAAAAGAAG [GTGCAC_site9745]	8.73 ± 0.29
GTATGTATGTATGTATGTACTTATTTATTTATTTAT [XGTACX_site1921]	9.27 ± 0.13
TAAATTTAAAATGACACACACTAAAATTATTTAAGT [CACACA_site4816]	8.57 ± 0.44
AAATATTCATAGTATACACACATTTATTTATAACCA [CACACA_site6502]	8.46 ± 0.36
ACCTTTAATATATACACACACATAAAAAAAATATAT [CACACA_site1843]	9.49 ± 0.54
TAAAAGTATTCCTTTTGTACATATAATGAAAACAAT [XGTACX_site2069]	8.4 ± 0.33
ATACAATAATATAAATGTACAAATTATATCTTAATT [XGTACX_site6004]	8.54 ± 0.41
CTATATTTTTAAAAATGTACTTTATAATAAAATACT [XGTACX_site3593]	8.28 ± 0.43
CTGTTTTTACTAAGTTGTACAAATGATGATACCCTA [XGTACX_site630]	8.76 ± 0.33
TATATTTCATTATATTGTACAAAATATATATATTAT [XGTACX_site4644]	8.47 ± 0.25
ATACATGAATAAATATGTACACATATAAAAACATAT [XGTACX_site2740]	8.68 ± 0.23
ATGTATATAAATATACGTACATAAATATAAGTATAG [XGTACX_site7155]	8.57 ± 0.26
CATTATATATATTACTAAAAATTTTACCCCTTAGCT [CACACA_negctrl_site302]	8.49 ± 0.5
TTTTTTCTTTTTATGTGTACTTATTTTATTTAATAA [XGTACX_site1080]	8.7 ± 0.44
CATTTCTATATAAGCACACACGTGGAATTTTTTTTT [CACACA_site5537]	8.7 ± 0.26
TTTTAACAAAACTAAATAATCATATATATAAGATAT [GTGCAC_negctrl_site298]	8.26 ± 0.54
AAATCGTAATATATTTGTACTTATTTGAAAAATCCA [XGTACX_site8141]	8.41 ± 0.44
TCATATTATAAATAAATAAATAAATATATATATATA [CACACA_negctrl_site577]	9.97 ± 0.23
ATTATTTGAACAACAAAAAAAAAGAAAAGAAAAGAA [CACACA_negctrl_site1031]	8.88 ± 0.47
AACACGCGCAGACACACACACACACGCACATATATA [CACACA_site7104]	8.72 ± 0.49
TTTTTTTTCTTTTTTTTAAGAAATAAATAAATAATT [XGTACX_negctrl_site137]	7.78 ± 0.28
CTTAAAGGGAAAAATACACACATATAAATATTATGT [CACACA_site2225]	8.21 ± 0.31

Sequence	gcPBM binding intensity (ln)
ACTTAATTTTTTTTATGTACTTATTTAAAAAATTTT [XGTACX_site2712]	8.74 ± 0.35
TTAGTAGTATTATGTAGTACATAATTATCATATCAT [XGTACX_site817]	8.53 ± 0.21
TAATTATTTTTATATTGTACAATATGTAAATATATA [XGTACX_site592]	8.39 ± 0.38
AAAAAAAAAAAAAAAAGTACATACAACATTATGAAA [XGTACX_site207]	8.53 ± 0.31
ATAAATAAATAAATCTGTACATATGTATATGTATAT [XGTACX_site4537]	8.33 ± 0.31
AATTAAAAAAAAAAAAAAAAAAAAAAATGAAAAAAA [CACACA_negctrl_site1073]	8.04 ± 0.57
TTTTTTGAATTTAAAAGTACAGGCTTTTACCAAATA [XGTACX_site1356]	8.11 ± 0.26
AAAAAAGAAAAAAAGTGTACAATATTTATTACATAT [XGTACX_site2277]	8.08 ± 0.028
GCAAAGCACAAATATGCATGTAGATATAGAATAATG [TGCATGCA_site382]	8.84 ± 0.4
TTTGTGTATATAACAGTGCAATATTATAAATATAAA [GTGCAC_site9750]	8.71 ± 0.092
ATAATCCTTGGACACACACACACACTAGTAAATAAA [CACACA_site4423]	8.71 ± 0.53
AACCCAAAATAATTATGTACATATTTTTAAATATAT [XGTACX_site6487]	8.62 ± 0.49
TATACGTATACCTATACACACATATATTTATTTATA [CACACA_site6716]	8.56 ± 0.55
TATATATATAACAGAATGCACTTTATATGTTCATAT [GTGCAC_site9880]	8.94 ± 0.14
GATATCCTTATATTTGCACACACACCCAATAAAATG [CACACA_site1028]	8.99 ± 0.34
AAAAAATACAGACACACACACACACGCATATAAATA [CACACA_site7644]	8.8 ± 0.52
TAATAAATTCATAATTGTACATTGAAGTATTATGCA [XGTACX_site5121]	8.29 ± 0.28
TTTTTTTATTTTGTATGTACATATCATTTGATATTC [XGTACX_site8449]	8.82 ± 0.43
AGTAGCGGCGGTATCATGCACACGTATAGATTGTAA [CACACA_site1587]	8.85 ± 0.48
ATTAAATCCGCACGCACACACACATATTAAGAAAAA [CACACA_site6062]	8.62 ± 0.4
